Results from the supplement of paper PMC3694890.
± gives the uncertainty stated by the source. Some of the results follow. Phosphotyrosine is written y.

The binders below were run against GRB2 (endogenous complexes from cell lysate), P62993 (assay: GRB2 complex binding differential signal (pY peptide minus Ala control peptide) (fluorescence intensity units); higher = stronger GRB2 complex binding). Conditions: MCF7.
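Further: phosphopeptide probes on the chip at 1–4 µM, lysate proteins bound in 20 mM Tris pH 7.0 buffer with 140 mM NaCl, 1% Triton X-100 and 5% glycerol.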

Binder	GRB2 complex binding differential signal
ySTPHA [RAF1_232/A1]	7180 ± 6800
yYWEIE [RAF1_340/A1]	68.1 ± 320
yWEIEA [RAF1_341/A1]	-67.9 ± 300
yEAAQP [BCAR1_224/A1]	2110 ± 370
yNTIRR [RASA1_460/A1]	-124 ± 370
yCNIYL [RASA1_615/A1]	1750 ± 960
yMEGVN [RASA1_952/A1]	764 ± 280
yCEIPR [RASA3_66/A1]	2950 ± 970
yTLVRE [RASH_157/A1]	1110 ± 340
yLDLAA [RET_1015/A1]	133 ± 140
yDDGLS [RET_1029/A1]	340 ± 200
yGMSDP [RET_1062/A1]	660 ± 290
yPNDSV [RET_1090/A1]	328 ± 160
yANWML [RET_1096/A1]	2170 ± 370
yDIPRH [BCAR1_234/A1]	2130 ± 820
ySSSGA [RET_687/A1]	1360 ± 410
yGACSQ [RET_791/A1]	234 ± 220

Binder	GRB2 complex binding differential signal
yAKYGS [RET_806/A1]	1480 ± 240
yGSLRG [RET_809/A1]	2980 ± 400
yLGSGG [RET_826/A1]	998 ± 300
yEEDSY [RET_900/A1]	37.1 ± 240
yVKRSQ [RET_905/A1]	856 ± 360
yRLMLQ [RET_981/A1]	457 ± 360
yDVPNA [RIN1_36/A1]	4000 ± 900
yQDPSS [RIN1_632/A1]	5800 ± 1700
yDVPPV [BCAR1_249/A1]	2730 ± 830
ySDEYE [ROR1_160/A1]	-214 ± 430
yRGIAC [ROR1_173/A1]	1080 ± 960
yYRVQS [ROR1_645/A1]	1630 ± 1200
yPNYMF [ROR1_786/A1]	1200 ± 1200
yMFPSQ [ROR1_789/A1]	2570 ± 900
yAAFPA [ROR1_828/A1]	2460 ± 1900
yQPTGP [ROR1_836/A1]	2060 ± 2400

Same assay, conditions: MCF10A

Binder	GRB2 complex binding differential signal
ySTPHA [RAF1_232/A1]	4510 ± 1300
yYWEIE [RAF1_340/A1]	-125 ± 370
yWEIEA [RAF1_341/A1]	-57.7 ± 320
yEAAQP [BCAR1_224/A1]	1750 ± 430
yNTIRR [RASA1_460/A1]	378 ± 260
yCNIYL [RASA1_615/A1]	1050 ± 230
yMEGVN [RASA1_952/A1]	500 ± 400
yCEIPR [RASA3_66/A1]	1370 ± 380
yTLVRE [RASH_157/A1]	778 ± 250
yLDLAA [RET_1015/A1]	149 ± 240
yDDGLS [RET_1029/A1]	46.7 ± 200
yGMSDP [RET_1062/A1]	154 ± 220
yPNDSV [RET_1090/A1]	639 ± 240
yANWML [RET_1096/A1]	727 ± 280
yDIPRH [BCAR1_234/A1]	2230 ± 720
ySSSGA [RET_687/A1]	2090 ± 310
yGACSQ [RET_791/A1]	-57.8 ± 170

Binder	GRB2 complex binding differential signal
yAKYGS [RET_806/A1]	907 ± 310
yGSLRG [RET_809/A1]	912 ± 210
yLGSGG [RET_826/A1]	606 ± 270
yEEDSY [RET_900/A1]	82.3 ± 250
yVKRSQ [RET_905/A1]	1130 ± 320
yRLMLQ [RET_981/A1]	264 ± 230
yDVPNA [RIN1_36/A1]	978 ± 1300
yQDPSS [RIN1_632/A1]	3660 ± 600
yDVPPV [BCAR1_249/A1]	1260 ± 460
ySDEYE [ROR1_160/A1]	30 ± 130
yRGIAC [ROR1_173/A1]	630 ± 240
yYRVQS [ROR1_645/A1]	880 ± 290
yPNYMF [ROR1_786/A1]	-201 ± 1400
yMFPSQ [ROR1_789/A1]	1220 ± 440
yAAFPA [ROR1_828/A1]	688 ± 520
yQPTGP [ROR1_836/A1]	2790 ± 340

Same assay, conditions: MDA-MB-231

Binder	GRB2 complex binding differential signal
ySTPHA [RAF1_232/A1]	3930 ± 400
yYWEIE [RAF1_340/A1]	198 ± 260
yWEIEA [RAF1_341/A1]	402 ± 780
yEAAQP [BCAR1_224/A1]	2390 ± 920
yNTIRR [RASA1_460/A1]	112 ± 370
yCNIYL [RASA1_615/A1]	1960 ± 520
yMEGVN [RASA1_952/A1]	560 ± 360
yCEIPR [RASA3_66/A1]	546 ± 340
yTLVRE [RASH_157/A1]	1190 ± 460
yLDLAA [RET_1015/A1]	686 ± 520
yDDGLS [RET_1029/A1]	358 ± 330
yGMSDP [RET_1062/A1]	657 ± 420
yPNDSV [RET_1090/A1]	348 ± 590
yANWML [RET_1096/A1]	1590 ± 360
yDIPRH [BCAR1_234/A1]	627 ± 660
ySSSGA [RET_687/A1]	1070 ± 370
yGACSQ [RET_791/A1]	295 ± 360

Binder	GRB2 complex binding differential signal
yAKYGS [RET_806/A1]	613 ± 420
yGSLRG [RET_809/A1]	503 ± 340
yLGSGG [RET_826/A1]	270 ± 250
yEEDSY [RET_900/A1]	274 ± 390
yVKRSQ [RET_905/A1]	283 ± 470
yRLMLQ [RET_981/A1]	387 ± 430
yDVPNA [RIN1_36/A1]	1300 ± 630
yQDPSS [RIN1_632/A1]	1230 ± 470
yDVPPV [BCAR1_249/A1]	1240 ± 480
ySDEYE [ROR1_160/A1]	65.5 ± 250
yRGIAC [ROR1_173/A1]	123 ± 430
yYRVQS [ROR1_645/A1]	675 ± 440
yPNYMF [ROR1_786/A1]	769 ± 380
yMFPSQ [ROR1_789/A1]	1050 ± 660
yAAFPA [ROR1_828/A1]	2210 ± 910
yQPTGP [ROR1_836/A1]	760 ± 350

Same assay, conditions: T47D

Binder	GRB2 complex binding differential signal
ySTPHA [RAF1_232/A1]	5800 ± 1500
yYWEIE [RAF1_340/A1]	-165 ± 1700
yWEIEA [RAF1_341/A1]	372 ± 1000
yEAAQP [BCAR1_224/A1]	4010 ± 1200
yNTIRR [RASA1_460/A1]	310 ± 980
yCNIYL [RASA1_615/A1]	7950 ± 1900
yMEGVN [RASA1_952/A1]	259 ± 940
yCEIPR [RASA3_66/A1]	162 ± 1100
yTLVRE [RASH_157/A1]	1580 ± 1300
yLDLAA [RET_1015/A1]	439 ± 1500
yDDGLS [RET_1029/A1]	198 ± 1000
yGMSDP [RET_1062/A1]	841 ± 1100
yPNDSV [RET_1090/A1]	2270 ± 960
yANWML [RET_1096/A1]	9650 ± 2400
yDIPRH [BCAR1_234/A1]	985 ± 1100
ySSSGA [RET_687/A1]	1450 ± 1600

Binder	GRB2 complex binding differential signal
yGACSQ [RET_791/A1]	710 ± 1600
yAKYGS [RET_806/A1]	1400 ± 1400
yGSLRG [RET_809/A1]	379 ± 1600
yLGSGG [RET_826/A1]	280 ± 1100
yEEDSY [RET_900/A1]	338 ± 1500
yVKRSQ [RET_905/A1]	665 ± 1200
yRLMLQ [RET_981/A1]	817 ± 1100
yDVPNA [RIN1_36/A1]	1570 ± 1000
yQDPSS [RIN1_632/A1]	1830 ± 980
yDVPPV [BCAR1_249/A1]	246 ± 790
yRGIAC [ROR1_173/A1]	72.6 ± 910
yYRVQS [ROR1_645/A1]	573 ± 990
yPNYMF [ROR1_786/A1]	2390 ± 1100
yMFPSQ [ROR1_789/A1]	1320 ± 950
yAAFPA [ROR1_828/A1]	4660 ± 2400
yQPTGP [ROR1_836/A1]	1410 ± 1000
